PubChem BioAssay (Tox21)
Values joined by “and” are separate entries in the source; they are usually repeats but may differ in a detail not shown here. Identical values can stand only once. Inconclusive means that the source gave no clear call. Such entries were picked first, then a sample of the others. For part of these data: Potencies beside an inconclusive call are fits to weak or partial responses and may not hold up. The source holds several records for some structures; these can differ, active in one and inactive in another. Active and inactive are the calls of the source. Unless noted, the call rests on the fitted dose curve; in most records, active means well fitted curve in the direction sought with a large enough effect in the repeat runs; inconclusive means weak or mixed curves; inactive means no such curve, though single readings can be large; an effect the other way counts as inactive or inconclusive.

Experiments:
[1] = qHTS assay to identify small molecule antagonists of the peroxisome proliferator-activated receptor gamma (PPARg) signaling pathway - cell viability counter screen (AID 743194); settings: PPARg-bla HEK293H viability, CellTiter-Glo luminescence, 17 h; Potency: co-treated with 50 nM rosiglitazone unless noted; activity change, negative = cytotoxicity: at 62.6 µM (top of the series), co-treated with 50 nM rosiglitazone unless noted; further: nearly all actives have a fitted effect of over 55% in size; further: potency means the concentration at half of the fitted maximal effect
Outline: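 PPARg-UAS-bla HEK293H cells were plated, rested 5 h at 37 C, then treated with compounds plus rosiglitazone (50 nM final) for 17 h at 37 C; viability was then read by CellTiter-Glo luminescence after 30 min at room temperature.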

[2] = target: Peroxisome proliferator-activated receptor delta (Homo sapiens) (UniProt Q03181); assay: qHTS assay to identify small molecule agonists of the peroxisome proliferator-activated receptor delta (PPARd) signaling pathway (AID 743212; calls by dose curve; further: potency means the concentration at half of the fitted maximal effect); settings: HEK293H PPARd-UAS-bla, beta-lactamase FRET ratio, 17 h; activation: at 62.6 µM (top of the series) unless noted
Sequence of UniProt Q03181 (Q03181 whole entry, looked up): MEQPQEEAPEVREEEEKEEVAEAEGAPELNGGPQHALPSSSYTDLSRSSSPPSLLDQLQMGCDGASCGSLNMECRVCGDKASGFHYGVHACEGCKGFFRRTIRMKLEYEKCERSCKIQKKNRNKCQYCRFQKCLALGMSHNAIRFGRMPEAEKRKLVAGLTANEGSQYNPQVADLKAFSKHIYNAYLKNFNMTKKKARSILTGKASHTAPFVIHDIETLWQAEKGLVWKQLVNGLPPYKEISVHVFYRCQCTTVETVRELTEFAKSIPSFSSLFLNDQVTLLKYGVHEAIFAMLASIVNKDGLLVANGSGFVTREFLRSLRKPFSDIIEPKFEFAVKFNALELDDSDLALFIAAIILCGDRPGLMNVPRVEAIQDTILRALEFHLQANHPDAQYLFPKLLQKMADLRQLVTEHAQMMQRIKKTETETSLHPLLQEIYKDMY
Outline: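 Beta-lactamase reporter read by fluorescence (LiveBLAzer B/G FRET, 2 h, room temperature). Test agents, in DMSO, incubated at 37 C with PPARd-bla HEK293H cells.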

[3] = target: Peroxisome proliferator-activated receptor delta (Homo sapiens) (UniProt Q03181); assay: qHTS assay to identify small molecule antagonists of the peroxisome proliferator-activated receptor delta (PPARd) signaling pathway (AID 743215; active means well fitted inhibition curve with a large enough effect in the signal ratio in the repeat runs, not every such curve was filed as active; inconclusive means weak or mixed curves, or effect the other way; inactive means no such curve, though single readings can be large or run the other way; the % refers to the signal ratio;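 further: cells stimulated with agonist L165041 at 300 nM final during compound exposure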; further: potency means the concentration at half of the fitted maximal effect; on ratio activity, negative = inhibition: on the % scale 0 is the no-effect control and ±100 the full control effect); settings: HEK293H PPARd-UAS-bla, beta-lactamase FRET ratio, antagonist, 17 h; ratio activity, negative = inhibition: at 62 µM (top of the series) unless noted
Outline: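 Fluorescence from cleaved LiveBLAzer B/G FRET substrate (2 h, room temperature) reports PPARd-driven beta-lactamase in HEK293H UAS-bla cells. Cells had been treated 17 h at 37 C with compound plus 300 nM final L165041.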

[4] = target: Peroxisome proliferator-activated receptor gamma (Homo sapiens) (UniProt P37231); assay: qHTS assay to identify small molecule antagonists of the peroxisome proliferator-activated receptor gamma (PPARg) signaling pathway (AID 743191; calls by dose curve; further: on the % scale 0 is the no-effect control and ±100 the full control effect; nearly all actives have a fitted effect of over 30% in size); settings: HEK293H PPARg-UAS-bla, beta-lactamase ratio, antagonist, 17 h; ratio activity, negative = inhibition: at 62.6 µM (top of the series) unless noted
Sequence of UniProt P37231 (P37231 whole entry, looked up): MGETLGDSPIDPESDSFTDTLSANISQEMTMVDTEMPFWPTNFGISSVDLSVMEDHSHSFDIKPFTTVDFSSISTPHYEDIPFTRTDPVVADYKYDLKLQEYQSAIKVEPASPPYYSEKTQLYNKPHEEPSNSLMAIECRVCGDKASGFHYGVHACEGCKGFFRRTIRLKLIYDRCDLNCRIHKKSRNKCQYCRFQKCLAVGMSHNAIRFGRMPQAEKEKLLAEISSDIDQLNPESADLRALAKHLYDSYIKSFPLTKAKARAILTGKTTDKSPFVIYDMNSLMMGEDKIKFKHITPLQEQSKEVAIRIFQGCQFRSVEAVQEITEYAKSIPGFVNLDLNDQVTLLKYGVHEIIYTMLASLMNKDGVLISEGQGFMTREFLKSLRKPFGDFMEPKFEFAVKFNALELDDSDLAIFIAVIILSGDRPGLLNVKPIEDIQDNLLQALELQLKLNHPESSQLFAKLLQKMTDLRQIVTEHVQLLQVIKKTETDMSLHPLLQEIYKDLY
Outline: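 GeneBLAzer PPARg UAS-bla HEK293H cells carrying a UAS-driven beta-lactamase reporter were plated at 3000 cells/well, preincubated 5 h at 37C, then given compound for 17 h at 37C; LiveBLAzer B/G FRET substrate was read after 1 h at room temperature.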

[5] = target: Vitamin D3 receptor (Homo sapiens) (UniProt P11473); assay: qHTS assay to identify small molecule antagonists of the vitamin D receptor (VDR) signaling pathway (AID 743223; active means well fitted inhibition curve with a large enough effect in the signal ratio in the repeat runs, not every such curve was filed as active; inconclusive means weak or mixed curves, or effect the other way; inactive means no such curve, though single readings can be large or run the other way; the % refers to the signal ratio; further: potency means the concentration at half of the fitted maximal effect; on activity change, negative = inhibition: on the % scale 0 is the no-effect control and ±100 the full control effect); settings: VDR-UAS-bla HEK293T, beta-lactamase FRET ratio, 16 h
Sequence of UniProt P11473 (P11473 whole entry, looked up): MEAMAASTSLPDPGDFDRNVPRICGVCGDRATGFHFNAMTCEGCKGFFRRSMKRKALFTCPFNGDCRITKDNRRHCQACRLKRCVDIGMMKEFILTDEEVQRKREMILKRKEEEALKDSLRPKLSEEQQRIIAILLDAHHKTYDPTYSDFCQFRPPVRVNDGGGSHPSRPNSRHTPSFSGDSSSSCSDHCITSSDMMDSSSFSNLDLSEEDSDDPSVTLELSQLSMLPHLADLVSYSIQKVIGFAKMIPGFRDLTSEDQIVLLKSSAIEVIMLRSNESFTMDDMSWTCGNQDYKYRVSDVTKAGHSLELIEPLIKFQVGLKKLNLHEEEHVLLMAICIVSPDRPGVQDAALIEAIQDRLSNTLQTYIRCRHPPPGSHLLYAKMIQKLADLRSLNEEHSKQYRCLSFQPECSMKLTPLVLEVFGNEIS
Outline: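 Reporter line VDR-bla; stimulus 1alpha,25-(OH)2 vitamin D3, 3 nM final; compound co-addition, 16 h 37C/5% CO2; LiveBLAzer B/G substrate 2 h RT; fluorescence intensity.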

[6] = qHTS assay for small molecule agonists of the antioxidant response element (ARE) signaling pathway (AID 743202; active means well fitted activation curve with a large enough effect in the signal ratio in the repeat runs, not every such curve was filed as active; inconclusive means weak or mixed curves, or effect the other way; inactive means no such curve, though single readings can be large or run the other way; the % refers to the signal ratio; further: potency means the concentration at half of the fitted maximal effect); settings: HepG2 ARE-bla reporter, beta-lactamase FRET, 16 h; activation: at 73.3 µM (top of the series) unless noted
Outline: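 Following a 16 h, 37 C exposure of reporter HepG2 cells (ARE-driven beta-lactamase, 2,000 cells/well) to compounds, FRET substrate was applied for 2 h at room temperature and fluorescence intensity recorded.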

[7] = qHTS assay to identify small molecule antagonists of the peroxisome proliferator-activated receptor delta (PPARd) signaling pathway - cell viability counter screen (AID 743213); settings: PPARd-bla HEK293H viability, CellTiter-Glo luminescence, 17 h; viability change, negative = cytotoxic: at 62 µM (top of the series) unless noted; further: nearly all actives have a fitted effect of over 50% in size; further: potency means the concentration at half of the fitted maximal effect
Outline: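 Cytotoxicity counter screen: CellTiter-Glo luminescence read 30 min after addition, in the same wells as the reporter assay. There, PPARd UAS-bla HEK293H cells (3000/well) were treated 17 h at 37 C with compound and 300 nM L165041.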

[8] = qHTS assay to identify small molecule agonists of the peroxisome proliferator-activated receptor delta (PPARd) signaling pathway - cell viability counter screen (AID 743211); settings: PPARd-bla HEK293H viability, CellTiter-Glo luminescence, 17 h; activity change, negative = cytotoxicity: at 62.6 µM (top of the series) unless noted; further: nearly all actives have a fitted effect of over 55% in size; further: potency means the concentration at half of the fitted maximal effect; on activity change, negative = cytotoxicity: on the % scale 0 is the no-effect control and ±100 the full control effect
Outline: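 qHTS cell viability: PPARd-bla HEK293H; 17 h cpd, 37C; CellTiter-Glo, luminescence at 30 min RT.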

[9] = qHTS assay to identify small molecule antagonists of the vitamin D receptor (VDR) signaling pathway - cell viability counter screen (AID 743225); settings: VDR-bla HEK293T viability, CellTiter-Glo luminescence, 16 h; viability change, negative = cytotoxic: at 61 µM (top of the series) unless noted; further: nearly all actives have a fitted effect of over 50% in size; further: potency means the concentration at half of the fitted maximal effect
Outline: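 Parallel cytotoxicity test: VDR-UAS-bla HEK 293T, 3 nM (final) 1-alpha,25-dihydroxyvitamin D3 with test compound, 16 h, 37C. Endpoint is CellTiter-Glo luminescence in the same wells.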

[10] = target: Vitamin D3 receptor (Homo sapiens) (UniProt P11473); assay: qHTS assay to identify small molecule agonists of the vitamin D receptor (VDR) signaling pathway (AID 743222; calls by dose curve; further: on the % scale 0 is the no-effect control and ±100 the full control effect); settings: HEK293T VDR-UAS-bla, beta-lactamase FRET ratio, 16 h; activation: at 63.5 µM (top of the series) unless noted
Outline: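 Following 4 h attachment at 37C, VDR-bla cells (2,000 per well) received DMSO-dissolved compounds or controls. After 16 h incubation, LiveBLAzer B/G FRET substrate was added and fluorescence read 2 h later at room temperature.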

[11] = qHTS assay to identify small molecule agonists of the vitamin D receptor (VDR) signaling pathway - cell viability counter screen (AID 743224); further: potency means the concentration at half of the fitted maximal effect; nearly all actives have a fitted effect of over 50% in size
Outline: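 In parallel with the bla FRET readout, cytotoxicity toward VDR-bla cells after 16 h compound exposure was assessed by CellTiter-Glo, with luminescence recorded after a 30 min room-temperature incubation.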

[12] = target: Bile acid receptor (Homo sapiens) (UniProt Q96RI1); assay: qHTS assay to identify small molecule antagonists of the farnesoid-X-receptor (FXR) signaling pathway (AID 743217; active means well fitted inhibition curve with a large enough effect in the signal ratio in the repeat runs, not every such curve was filed as active; inconclusive means weak or mixed curves, or effect the other way; inactive means no such curve, though single readings can be large or run the other way; the % refers to the signal ratio; further: potency means the concentration at half of the fitted maximal effect); settings: HEK293T FXR-UAS-bla, beta-lactamase ratio, CDCA-stimulated, 16 h; activity change, negative = inhibition: at 62.6 µM (top of the series) unless noted
Sequence of UniProt Q96RI1 (Q96RI1 whole entry, looked up): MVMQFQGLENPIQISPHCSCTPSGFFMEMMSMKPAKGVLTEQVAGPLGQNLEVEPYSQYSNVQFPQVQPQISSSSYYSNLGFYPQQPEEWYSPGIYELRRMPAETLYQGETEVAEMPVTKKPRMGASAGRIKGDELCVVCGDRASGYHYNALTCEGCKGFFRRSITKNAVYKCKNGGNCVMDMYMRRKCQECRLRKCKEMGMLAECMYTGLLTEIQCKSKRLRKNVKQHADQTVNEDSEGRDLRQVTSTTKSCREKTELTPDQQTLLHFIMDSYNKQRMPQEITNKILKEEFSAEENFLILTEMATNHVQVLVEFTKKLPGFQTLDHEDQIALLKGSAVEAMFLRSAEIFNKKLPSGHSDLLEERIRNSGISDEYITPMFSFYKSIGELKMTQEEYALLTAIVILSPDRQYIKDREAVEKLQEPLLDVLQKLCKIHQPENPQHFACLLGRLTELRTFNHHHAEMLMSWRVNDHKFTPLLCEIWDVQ
Outline: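 FRET fluorescence after 2 h room-temperature LiveBLAzer loading gives the readout. Prior step: FXR-bla HEK 293T cells, seeded and incubated 5 h, received test compounds plus 50 uM final CDCA for 16 h at 37 °C.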

[13] = qHTS assay for small molecule agonists of the antioxidant response element (ARE) signaling pathway - cell viability counter screen (AID 743203; calls by dose curve; further: potency means the concentration at half of the fitted maximal effect; nearly all actives have a fitted effect of over 55% in size)
Outline: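 Measured in the same wells as the beta-lactamase ARE reporter, this read-out is CellTiter-Glo luminescence from HepG2 ARE-bla cells given compounds for 16 hrs.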

[14] = qHTS assay for small molecule activators of the heat shock response signaling pathway (AID 743210; active means well fitted activation curve with a large enough effect in the signal ratio in the repeat runs, with a control signal flat, not every such curve was filed as active; inconclusive means weak or mixed curves; the % refers to the signal ratio; further: potency means the concentration at half of the fitted maximal effect); settings: HeLa HSE-bla reporter, beta-lactamase ratio, 5 h; activation: at 62.6 µM (top of the series)
Outline: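 Heat shock element–beta-lactamase HeLa reporter cells; qHTS with compounds for 5 h at 37 C; detection by FRET substrate fluorescence after 2.5 h at RT.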

[15] = qHTS assay to identify small molecule agonists of the farnesoid-X-receptor (FXR) signaling pathway - cell viability counter screen (AID 743218); settings: FXR-bla HEK293T viability, CellTiter-Glo luminescence, 16 h; viability change, negative = cytotoxic: at 62.6 µM (top of the series) unless noted; further: nearly all actives have a fitted effect of over 45% in size; further: potency means the concentration at half of the fitted maximal effect
Outline: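 Readout: CellTiter-Glo luminescence, 30 min RT, multiplexed after the FXR-bla FRET reading. HEK 293T FXR-UAS-bla cells received compound 5 h post-plating and were incubated 16 h at 37 C.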

[16] = qHTS assay for small molecule activators of the heat shock response signaling pathway - cell viability counter screen (AID 743209); settings: HSE-bla HeLa viability, CellTiter-Glo luminescence, 5 h; activity change, negative = cytotoxicity: at 62.6 µM (top of the series) unless noted; further: on the % scale 0 is the no-effect control and ±100 the full control effect; nearly all actives have a fitted effect of over 50% in size
Outline: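 Same-well multiplex: after 2.5 h room-temperature incubation with LiveBLAzer B/G substrate and fluorescence reading, CellTiter-Glo reagent was added to HSE-bla HeLa cells that had received compound for 5 h at 37 C; luminescence read after 30 min.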

[17] = activity change, negative = inhibition: at 61 µM (top of the series) unless noted
Tags describe the fitted curve by direction and shape or compound fluorescence and quenching.

Compound: CNC(=O)Oc1cccc2ccccc12
- Potency [1]: inconclusive: 549 nM [rising, full curve, poor fit]
- Potency [2]: inconclusive: 48.5 nM [rising, full curve, poor fit]
- ratio activity, negative = inhibition [3]: inconclusive: 1.85% and inconclusive: 5.68%

Compound: COc1nc(C)nc(NC(=O)NS(=O)(=O)c2ccccc2Cl)n1
- Potency [4]: inactive
- Potency [5, 17]: inactive

Compound: O=[N+]([O-])c1cccc2cccc([N+](=O)[O-])c12
- Potency [6]: active: 9.73 µM
- Potency [7]: inconclusive: 55.2 nM [cytotoxic, full curve, poor fit]
- ratio activity, negative = inhibition [3]: inconclusive: -30.5% [at 80.4 µM]

Compound: C[C@@H]1CC[C@H]2[C@@H](C)C(=O)O[C@@H]3O[C@@]4(C)CC[C@@H]1[C@]32OO4
- Potency [6]: inconclusive: 3.76 µM [rising, partial curve, poor fit]
- Potency [8]: inactive
- activity change, negative = inhibition [5, 17]: inconclusive: -4.3%

Compound: CCCCOC(=O)c1ccccc1C(=O)OCCCC
- Potency [1]: inconclusive: 195 nM [rising, full curve, poor fit]
- Potency [5, 17]: inconclusive: 3.9 nM [falling, full curve]
- Potency [9]: inconclusive: 437 nM [cytotoxic, full curve, poor fit]

Compound: CC(C)(O)C(=O)Nc1ccc([N+](=O)[O-])c(C(F)(F)F)c1
- Potency [6]: active: 27.9 µM and active: 22.4 µM
- Potency [8]: inactive and inconclusive: 31.9 µM [cytotoxic, partial curve, poor fit]
- Potency [7]: inconclusive: 1990 nM [cytotoxic, full curve, poor fit]
- activation [10]: inconclusive: -12.6% [at 81.1 µM]
- activity change, negative = inhibition ([5]; at 61 µM (top of the series)): inconclusive: 24.6%
- activity change, negative = inhibition ([5]; at 78.8 µM (top of the series)): inconclusive: 24.9%
- Potency [11]: inconclusive: 62900 nM [cytotoxic, single point]
- Potency [9]: inconclusive: 50000 nM [cytotoxic, partial curve, poor fit]

Compound: O=C1OC(c2ccc(O)c(S(=O)(=O)O)c2)(c2ccc(O)c(S(=O)(=O)O)c2)c2c(Br)c(Br)c(Br)c(Br)c21
- Potency [6]: inconclusive: 5.96 µM [falling, partial curve, poor fit]
- Potency [3]: inactive
- activity change, negative = inhibition [12]: inconclusive: 31.1%
- activity change, negative = inhibition [5, 17]: inconclusive: 14.8%

Compound: CN(C)C(=O)Oc1cc(OC(=O)N(C)C)cc(C(O)CNC(C)(C)C)c1 (configuration not stated)
- Potency [6]: inactive
- Potency [2]: inactive
- Potency [10]: inactive

Compound: C=CCO
- activation [6]: inconclusive: 19.9%
- Potency [8]: inactive
- Potency [7]: inconclusive: 181 nM [cytotoxic, single point]

Compound: CC(=O)[O-].CC(=O)[O-].[Co+2]
- Potency [6]: inconclusive: 4.33 µM [rising, full curve]

Compound: CCBr
- Potency [6]: inactive

Compound: CCCC[N+]1(C)CCCCC1
- Potency [6]: inactive

Compound: CN
- activation [6]: inconclusive: -0.865% [at 94.8 µM]

Compound: O=C(O)CC(Cl)C(=O)O (configuration not stated)
- Potency [6]: active: 2.76 µM
- Potency [13]: inconclusive: 110 nM [cytotoxic, full curve, poor fit]
- Potency [12]: inactive

Compound: Cc1ccccc1N
- Potency [6]: inactive
- Potency [7]: inactive

Compound: [CH3][Sn]([Cl])([Cl])[Cl]
- Potency [6]: inconclusive: 27.3 µM
- Potency [14]: inconclusive: 58200 nM
- Potency [15]: inconclusive: 2.2 nM [rising, full curve, poor fit]

Compound: O.O.O.O=C([O-])[C@H]([O-])[C@@H]([O-])C(=O)[O-].O=C([O-])[C@H]([O-])[C@@H]([O-])C(=O)[O-].[K+].[K+].[Sb+3].[Sb+3]
- Potency [6]: inconclusive: 0.388 µM [falling, partial curve, poor fit]
- Potency [2]: inconclusive: 22000 nM [rising, partial curve, poor fit]
- Potency [12]: inconclusive: 22000 nM [rising, full curve]
- Potency [9]: inactive

Compound: CCCCOC(=O)CCC(=O)OCCCC
- Potency [1]: inactive
- Potency [3]: inconclusive: 61600 nM [rising, partial curve, poor fit]

Compound: CCN(CCO)CCO
- activation [6]: inconclusive: 23%
- Potency [16]: inactive
- ratio activity, negative = inhibition [3]: inconclusive: 22.7%
- Potency [15]: inactive

Compound: O=C(O)C(Cl)(Cl)Cl
- Potency [6]: inactive
- Potency [14]: inactive
- Potency [9]: inconclusive: 1740 nM [rising, full curve, poor fit]
